Source: publication PMC4336329 (PLoS ONE, 2015)
About 2,200 (0.71%) of roughly 310,000 compounds showed an effect of 50% or more. Effects have a minus sign here. The list shows a part of the results.

Biological target: human ether-à-go-go-related gene (hERG) potassium channel (human, UniProt Q12809)
Test: primary screen, population patch clamp on CHO cells stably expressing hERG

Chain of human ether-à-go-go-related gene (hERG) potassium channel (Q12809 whole entry, looked up): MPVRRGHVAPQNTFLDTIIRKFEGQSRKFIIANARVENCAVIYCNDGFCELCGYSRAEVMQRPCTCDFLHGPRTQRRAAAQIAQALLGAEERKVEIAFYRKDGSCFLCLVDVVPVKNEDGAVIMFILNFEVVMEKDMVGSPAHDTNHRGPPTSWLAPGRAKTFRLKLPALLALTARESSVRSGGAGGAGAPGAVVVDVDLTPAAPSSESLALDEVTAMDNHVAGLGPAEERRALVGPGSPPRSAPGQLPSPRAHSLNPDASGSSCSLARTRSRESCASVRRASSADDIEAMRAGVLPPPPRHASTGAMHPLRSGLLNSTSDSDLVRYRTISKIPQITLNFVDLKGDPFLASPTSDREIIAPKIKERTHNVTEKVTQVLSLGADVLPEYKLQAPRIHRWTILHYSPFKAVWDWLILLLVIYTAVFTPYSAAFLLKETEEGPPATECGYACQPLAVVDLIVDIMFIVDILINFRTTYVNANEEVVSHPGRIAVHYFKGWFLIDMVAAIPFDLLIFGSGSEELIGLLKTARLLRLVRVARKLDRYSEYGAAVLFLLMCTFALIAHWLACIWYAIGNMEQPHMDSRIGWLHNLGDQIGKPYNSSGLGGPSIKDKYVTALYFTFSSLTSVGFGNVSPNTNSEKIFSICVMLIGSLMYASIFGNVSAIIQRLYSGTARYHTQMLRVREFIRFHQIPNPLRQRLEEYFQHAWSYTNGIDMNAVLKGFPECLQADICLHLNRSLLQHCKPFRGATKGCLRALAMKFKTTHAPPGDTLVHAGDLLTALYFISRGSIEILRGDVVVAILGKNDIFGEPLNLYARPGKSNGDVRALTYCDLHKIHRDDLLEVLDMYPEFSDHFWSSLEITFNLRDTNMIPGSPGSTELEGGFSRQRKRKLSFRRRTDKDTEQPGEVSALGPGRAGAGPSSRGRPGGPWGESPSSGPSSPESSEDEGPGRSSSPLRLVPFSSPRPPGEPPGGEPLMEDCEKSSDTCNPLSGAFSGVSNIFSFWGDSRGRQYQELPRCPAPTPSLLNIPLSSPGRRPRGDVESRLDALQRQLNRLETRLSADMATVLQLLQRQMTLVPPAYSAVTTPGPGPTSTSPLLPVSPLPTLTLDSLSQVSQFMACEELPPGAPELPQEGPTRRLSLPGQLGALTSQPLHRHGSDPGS

SMILES	hERG current change (%, negative = inhibition) at 1uM
CC1SCC(=O)N(CC(=O)Nc2ccc3c(c2)OCCO3)C1=O (stereo not drawn)	4.39%
COc1cc(NC(=O)c2cc(C)on2)cc(C(=O)Nc2cccc(C(F)(F)F)c2)c1	15.1%
COc1ccc(OC)c(-n2c(-c3cccc(C)c3)n[nH]c2=S)c1	13.4%
Cc1nn(-c2ccccc2)c2c1C(c1cccs1)C(C#N)=C(N)O2 (stereo not drawn)	7.4%
COc1cc(NC(=O)c2ccc(Cl)cc2)c(OC)cc1NC(=O)CN1CCOCC1	0.784%
CN1CC(c2ccc(Cl)c(Cl)c2)[C@@]2(COc3ccccc3C2=O)[C@@]12C(=O)Nc1ccccc12 (stereo partly drawn)	10.9%
Cn1c(N2CCN(C(=O)NC34CC5CC(CC(C5)C3)C4)CC2)nc2ccccc21	23%
COc1ccc(C(=O)OCC(=O)Nc2ncc([N+](=O)[O-])s2)cc1OC	4.09%
Cc1cc(C)c(C(=O)/C=C/c2ccc(C(C)C)cc2)c(=O)[nH]1	15.2%
O=C(Cn1cnnn1)NCCc1ccc(Cl)cc1Cl	-3.37%
Cc1cc(C)cc(OCc2nnc(SCC(=O)c3ccccc3)o2)c1	15.6%
CN1CCN(c2c(/C=N/O)c3ccccc3n2C)CC1	-19.4%
Cn1nnc2sc3c(c2c1=O)CCCC3	14.3%
CCCOc1ccc(N2C(=O)CC(N(Cc3ccc(OC)cc3)C(=S)Nc3ccccc3)C2=O)cc1 (stereo not drawn)	0.174%
CSCCC(NC(=O)C1CCC(C)CC1)C(=O)Nc1ccc(NC(C)=O)cc1 (stereo not drawn)	5.76%
CCOc1ccc(NC(=O)CSc2nnnn2-c2ccc(C(N)=O)cc2)cc1	17.6%
CCS(=O)(=O)N1CCC(C(=O)Nc2ccc(C(C)=O)cc2)CC1	15.5%
O=C(c1cccs1)N1N=C(c2ccccc2)CC1c1ccc(O)cc1 (stereo not drawn)	8.62%
Cc1ccc(C(=O)Nc2ccccc2N2CCN(C(=O)C(C)C)CC2)cc1C	4.06%
CCN(CC)C(=O)CSc1nc2ccccc2c(=O)n1CCC(=O)NCCc1ccc(OC)c(OC)c1	4.25%
CCN(CC)S(=O)(=O)c1ccc(C)c(NC(=O)CSc2nc3ccc(C)cc3[nH]2)c1	12.1%
Cc1ccc(N(CC2CO2)S(=O)(=O)c2ccc([N+](=O)[O-])cc2)cc1 (stereo not drawn)	-3.91%
CC1(C)OC2CC3C4CC(F)C5=CC(=O)C=CC5(C)C4(F)C(O)CC3(C)C2(C(=O)CO)O1 (stereo not drawn)	3.44%

SMILES	hERG current change (%, negative = inhibition) at 1uM
CCOC(=O)[C@@H]1CCNC[C@@H]1c1ccccc1.Cl	12.6%
Cc1ccc(C(=O)O/N=C(\N)c2ccc(Br)cc2)cc1	13.3%
COc1cc2cc(C(=O)N3CCN(Cc4ccc5c(c4)OCO5)CC3)c(=O)oc2cc1OC	11%
COc1cccc(CCc2nnc(CCC(=O)NCCC3CCCCO3)o2)c1 (stereo not drawn)	17.5%
CCN(CC(=O)NCc1ccc(Cl)cc1)C(=O)CSc1cccc(C(F)(F)F)c1	-0.764%
CCN(CC)c1ccc(/C=N/n2nnnc2N)c(O)c1	13.6%
O=C(Cc1ccccc1)N/N=C/c1ccccn1	12.8%
CCOc1ccc(C(=O)COC(=O)C2CCN(c3ccc(C(F)(F)F)cn3)CC2)cc1	-5.7%
CCc1c(O)nc(SCc2nc3ccccc3c(=O)[nH]2)[nH]c1=O	21%
CCN(c1ccccc1)S(=O)(=O)c1ccc(C(=O)N2CC(C)CC(C)C2)cc1 (stereo not drawn)	2.3%
O=C(Cn1c(C(=O)NCc2ccco2)cc2sccc21)c1ccccc1	10.5%
CC1Cc2ccccc2N1C(=O)c1cnc2sccn2c1=O (stereo not drawn)	13.9%
CCC1CCc2sc(C(=O)NCC3CCCO3)cc2C1 (stereo not drawn)	11.8%
Cc1ccc2nc(-c3ccc(NC(=O)CN(C)S(=O)(=O)c4ccccc4)cc3)sc2c1	3.78%
O=C1CSC(=S)N1CC1CCCO1 (stereo not drawn)	2.8%
CNC(=O)CSc1nnnn1-c1ccc2c(c1)OCCO2	8.48%
CC(C)OC(=O)Cn1c(-c2ccccc2)c(-c2ccccc2)nnc1=O	18%
C=CCc1ccccc1OCC(O)CN1C(=O)c2ccccc2C1=O (stereo not drawn)	-1.02%
O=C(Cc1cccc2ccccc12)Nc1cc(Cl)ccc1C(=O)O	16.9%
Cc1ccc(S(=O)(=O)CCc2nnc(N)s2)cc1C	15.2%
COCCN(C(=O)Cc1ccc(OC)c(OC)c1)c1nc(-c2cc(OC)ccc2OC)cs1	7.34%
Cc1cccc(C)c1NC(=O)c1sc(Cl)nc1C	7.42%
COc1ccc2sc3ccccc3c(=O)c2c1	7.65%

SMILES	hERG current change (%, negative = inhibition) at 1uM
Cc1cc(C)c(C)c(OC(=O)c2sc(Cl)nc2C)c1	9.78%
CCN(CC(=O)Nc1ccc(OC)cc1)C(=O)CSCC(=O)Nc1cc(C)on1	14%
CCN(CC(=O)Nc1c(F)cccc1F)C(=O)C1CC1C (stereo not drawn)	7.94%
CCCn1cc2c(c1-c1ccc(C)cc1)c(=O)n(C)c(=O)n2C	-2.98%
Cc1cc(=O)[nH]c(/N=C(\N)Nc2ccc(SC(F)F)cc2)n1	1.96%
COC(C(=O)Nc1ccnn1C1CCN(C(=O)c2cccc(F)c2)CC1)c1ccccc1 (stereo not drawn)	13.1%
Cc1cccc(NS(=O)(=O)c2cccc(C(=O)N3CCN(C/C=C/c4ccccc4)CC3)c2)c1	3.68%
Cc1nnc(Oc2ccccc2)c2ccccc12	0.148%
CCn1cc(C(=O)OCC(=O)c2cc(C)n(-c3ccccc3)c2C)c(=O)c2ccc(C)nc21	12.9%
CCCC(=O)Nc1ccc(C(=O)NNC(=S)NC(=O)c2ccc(Br)o2)cc1	7.94%
N#Cc1ccc(C(=O)Nc2cc(S(=O)(=O)Nc3ccc(Cl)cc3)ccc2N2CCCCC2)cc1	15.7%
O=C1NC(C(=O)O)=CC(c2cccc(Cl)c2Cl)N1 (stereo not drawn)	13.3%
CCN(CC)S(=O)(=O)c1cccc(C(=O)NC(C(=O)Nc2nnc(C)s2)C(C)C)c1 (stereo not drawn)	5.37%
O=C(COC(=O)c1ccc2c(c1)S(=O)(=O)c1ccccc1C2=O)NC1CC1	4.43%
O=C(Cc1ccc(Br)cc1)Nc1ccc(S(=O)(=O)Nc2ncccn2)cc1	17.7%
Cc1ccc(C(=O)N2CCN(c3ccc(NC(=S)NC(=O)Cc4ccccc4)cc3)CC2)cc1	-7.4%
COc1ccc(S(=O)(=O)N2CCN(C(=S)NC3CCCCC3)CC2)cc1	15.1%
CC(=O)N[C@H](Cc1c[nH]c2ccccc12)C(=O)O	8.37%
Cc1cccn2cc(COc3cccc([N+](=O)[O-])c3)nc12	10.1%
O=[N+]([O-])c1ccc(OCCCCN2CCCCC2)cc1	-59.4%
Cc1ccc(NC2(C(F)(F)F)N=C(c3ccccc3)NC2=O)nc1 (stereo not drawn)	9.98%
CC(C)(C)SCCNC(=O)c1ccc(Cl)c(S(=O)(=O)N2CCOCC2)c1	9.39%
O=C(NCc1ccccc1Cl)c1cnccc1C(F)(F)F	8.28%

SMILES	hERG current change (%, negative = inhibition) at 1uM
Cc1ccc(OCC(=O)NNC(=O)C2CCCO2)c(C)c1 (stereo not drawn)	11.7%
COc1ccc(OC)c(S(=O)(=O)N(C)CC(=O)N2CCCCC2)c1	2.23%
Cc1ccc(S(=O)(=O)CC(C)(O)C(=O)Nc2cccc(C(F)(F)F)c2)cc1 (stereo not drawn)	8.14%
CCN(CC)C(=O)Cn1cc(C(=O)C(=O)N2CCCc3ccccc32)c2ccccc21	1.99%
O=C(CCc1ccncc1)N1CCCC(Nc2ccc(F)c(F)c2)C1 (stereo not drawn)	-3.19%
O=C(COc1cccc(NC(=O)c2ccco2)c1)c1ccc(F)cc1	-3.08%
O=C(c1cc(F)ccc1F)C1CCCN(C(=O)c2cccs2)C1 (stereo not drawn)	10.1%
O=C(O)c1cc2n(n1)C(C(F)(F)F)CC(c1ccccc1)N2 (stereo not drawn)	18%
CCCC(=O)Nc1ccc2nc(SCC(=O)N3CCCC3)sc2c1	9.11%
Cn1c(=O)[nH]c2c(Cl)nccc21	10.4%
O=C1CCC([N+](=O)[O-])C(c2cccc(Br)c2)N1 (stereo not drawn)	-8.83%
COc1cccc(Cn2cc(N)cn2)c1	17.4%
CC(NC(=O)C1CCC(CNC(=O)[C@@H]2Cc3ccccc3CN2)CC1)c1ccccc1 (stereo partly drawn)	15.8%
Cc1cccc(CSc2ccc(S(=O)(=O)N3CCCC3)cn2)c1	18%
CCCCNC(=S)NNC(=O)c1c(Cl)c(C)nn1C	8.81%
CCn1c(Cc2ccccc2)nnc1SCC(=O)Nc1ccc2c(c1)OCO2	7.75%
C=C(C)COc1ccc(-c2nc(N)ncc2-c2ccc(OC)c(OC)c2)c(O)c1	6.14%
O=C(Nc1cnccn1)c1ccncc1	-8.03%
CCOc1ccc(Nc2n[nH]c(=S)s2)cc1	17.5%
O=P1(Nn2cnnc2)C=C(c2ccccc2)OC(c2ccccc2)=C1	-9.39%
Cc1[nH]c2ccccc2c1Cc1n[nH]c(=S)o1	12.1%
